Experimental data: a collection of fitness landscapes (doi:10.1126/science.1257360)
The list shows a part of the results.

B1: PhoQ; a variant is named by its letters at X, in order, P23837 (parent)
chain: MKKLLRLFFPLSLRVRFLLATAAVVLVLSLAYGMVALIGYSVSFDKTTFRLLRGESNLFYTLAKWENNKLHVELPENIDKQSPTMTLIYDENGQLLWAQRDVPWLMKMIQPDWLKSNGFHEIEADVNDTSLLLSGDHSIQQQLQEVREDDDDAEMTHSVAVNVYPATSRMPKLTIVVVDTIPVELKSSYMVWSWFIYVLSANLLLVIPLLWVAAWWSLRPIEALAKEVRELEEHNRELLNPATTRELTSLVRNLNRLLKSERERYDKYRTTLTDLTHSLKTPLXXLQXXLRSLRSEKMSVSDAEPVMLEQISRISQQIGYYLHRASMRGGTLLSRELHPVAPLLDNLTSALNKVYQRKGVNISLDISPEISFVGEQNDFVEVMGNVLDNACKYCLEFVEISARQTDEHLYIVVEDDGPGIPLSKREVIFDRGQRVDTLRPGQGVGLAVAREITEQYEGKIVAGESMLGGARMEVIFGRQHSAPKDE

Variants of: B1
Assay: enrichment ratio after two sorts for PhoP signalling (ratio (wild type AVST 3.29)); higher = more functional
Details: with PhoP (E. coli)

ATWL and RDGN cannot be ordered by enrichment ratio: at most 0.25 for the first, at most 0.25 for the second.

NDFC and FELP cannot be ordered by enrichment ratio: at most 0.25 for the first, at most 0.25 for the second.

YTPI and LYRC cannot be ordered by enrichment ratio: at most 0.25 for the first, at most 0.25 for the second.

SVDH and KFFV cannot be ordered by enrichment ratio: at most 0.25 for the first, at most 0.25 for the second.

TSDK and RMTR cannot be ordered by enrichment ratio: at most 0.25 for the first, at most 0.25 for the second.

EMLF and RSRN cannot be ordered by enrichment ratio: at most 0.25 for the first, at most 0.25 for the second.

NHKV and WLPA cannot be ordered by enrichment ratio: at most 0.25 for the first, at most 0.25 for the second.

LNEF and KVSW cannot be ordered by enrichment ratio: at most 0.25 for the first, at most 0.25 for the second.

DQDY and LINK cannot be ordered by enrichment ratio: at most 0.25 for the first, at most 0.25 for the second.

PECA and ADQG cannot be ordered by enrichment ratio: at most 0.25 for the first, at most 0.25 for the second.

LNAE and QPPT cannot be ordered by enrichment ratio: at most 0.25 for the first, at most 0.25 for the second.

First: PSVD
Second: WSPE
The enrichment ratio of the first is higher: 0.409 for the first, at most 0.25 for the second.

NVFV and FEKE cannot be ordered by enrichment ratio: at most 0.25 for the first, at most 0.25 for the second.

First: NAFV
Second: VGMQ
The enrichment ratio of the first is lower: at most 0.25 for the first, 2.81 for the second.

DNGQ and QRMD cannot be ordered by enrichment ratio: at most 0.25 for the first, at most 0.25 for the second.

YCWM and IEMT cannot be ordered by enrichment ratio: at most 0.25 for the first, at most 0.25 for the second.

Going from NSVL to QGNM, the enrichment ratio rises from at most 0.25 to 6.96.

PKCN and PFPA cannot be ordered by enrichment ratio: at most 0.25 for the first, at most 0.25 for the second.

PWMT and WLDP cannot be ordered by enrichment ratio: at most 0.25 for the first, at most 0.25 for the second.

First: LSKM
Second: DPYT
The enrichment ratio of the first is higher: 3.36 for the first, at most 0.25 for the second.

Compared with FWWV, TCGT is higher in enrichment ratio: at most 0.25 for the first, 11 for the second.

Compared with ENAE, YGCM is higher in enrichment ratio: at most 0.25 for the first, 4.55 for the second.

TPIM and FRMD cannot be ordered by enrichment ratio: at most 0.25 for the first, at most 0.25 for the second.

Compared with AEQV, GAAM is lower in enrichment ratio: 12.7 for the first, at most 0.25 for the second.

MPLA and PVSH cannot be ordered by enrichment ratio: at most 0.25 for the first, at most 0.25 for the second.

HDCT and SKHQ cannot be ordered by enrichment ratio: at most 0.25 for the first, at most 0.25 for the second.

DGIW and VTNA cannot be ordered by enrichment ratio: at most 0.25 for the first, at most 0.25 for the second.

HPMV and HWTM cannot be ordered by enrichment ratio: at most 0.25 for the first, at most 0.25 for the second.

First: FNYK
Second: QDRQ
The enrichment ratio of the first is higher: 0.488 for the first, at most 0.25 for the second.

EDMS and LCWC cannot be ordered by enrichment ratio: at most 0.25 for the first, at most 0.25 for the second.

ETKM and ALVY cannot be ordered by enrichment ratio: at most 0.25 for the first, at most 0.25 for the second.

NMYI and IVMK cannot be ordered by enrichment ratio: at most 0.25 for the first, at most 0.25 for the second.

FIKT and ESAM cannot be ordered by enrichment ratio: at most 0.25 for the first, at most 0.25 for the second.

PCVV and IDIF cannot be ordered by enrichment ratio: at most 0.25 for the first, at most 0.25 for the second.

GKPR and LCQI cannot be ordered by enrichment ratio: at most 0.25 for the first, at most 0.25 for the second.

SPEV and PLYS cannot be ordered by enrichment ratio: at most 0.25 for the first, at most 0.25 for the second.

KVSD and PAMT cannot be ordered by enrichment ratio: at most 0.25 for the first, at most 0.25 for the second.

SIEC and PWQG cannot be ordered by enrichment ratio: at most 0.25 for the first, at most 0.25 for the second.

QCDA and SCHI cannot be ordered by enrichment ratio: at most 0.25 for the first, at most 0.25 for the second.

Compared with MVWM, QLMY is lower in enrichment ratio: 0.553 for the first, at most 0.25 for the second.

IPMF and RSIL cannot be ordered by enrichment ratio: at most 0.25 for the first, at most 0.25 for the second.

RQKC and LHCD cannot be ordered by enrichment ratio: at most 0.25 for the first, at most 0.25 for the second.

ATLP and KFEC cannot be ordered by enrichment ratio: at most 0.25 for the first, at most 0.25 for the second.

YWEG and PTSC cannot be ordered by enrichment ratio: at most 0.25 for the first, at most 0.25 for the second.

LRDH and LNER cannot be ordered by enrichment ratio: at most 0.25 for the first, at most 0.25 for the second.

RYTQ and FQAI cannot be ordered by enrichment ratio: at most 0.25 for the first, at most 0.25 for the second.

Going from TLYE to RAST, the enrichment ratio rises from at most 0.25 to 0.266.

DLRW and FFEF cannot be ordered by enrichment ratio: at most 0.25 for the first, at most 0.25 for the second.

WHRQ and YMSW cannot be ordered by enrichment ratio: at most 0.25 for the first, at most 0.25 for the second.

MAFP and SCNT cannot be ordered by enrichment ratio: at most 0.25 for the first, at most 0.25 for the second.

Going from QAST to FICW, the enrichment ratio falls from 0.86 to at most 0.25.

HLRV and LNLA cannot be ordered by enrichment ratio: at most 0.25 for the first, at most 0.25 for the second.

MYEM and PCKH cannot be ordered by enrichment ratio: at most 0.25 for the first, at most 0.25 for the second.

MMRP and LIRY cannot be ordered by enrichment ratio: at most 0.25 for the first, at most 0.25 for the second.

Going from MVCN to TKTS, the enrichment ratio rises from at most 0.25 to 11.9.

GSHK and VYSI cannot be ordered by enrichment ratio: at most 0.25 for the first, at most 0.25 for the second.

ELYN and GGHK cannot be ordered by enrichment ratio: at most 0.25 for the first, at most 0.25 for the second.

NPFH and DWAF cannot be ordered by enrichment ratio: at most 0.25 for the first, at most 0.25 for the second.

WEIY and RWGA cannot be ordered by enrichment ratio: at most 0.25 for the first, at most 0.25 for the second.

Going from TQVT to PDTR, the enrichment ratio falls from 9.49 to at most 0.25.

GKIT and NQAD cannot be ordered by enrichment ratio: at most 0.25 for the first, at most 0.25 for the second.

KEST and HTSQ cannot be ordered by enrichment ratio: at most 0.25 for the first, at most 0.25 for the second.

Going from TQAE to VREH, the enrichment ratio falls from 8.04 to at most 0.25.

Going from QFAY to QCYE, the enrichment ratio rises from at most 0.25 to 0.304.

MWFR and KIEC cannot be ordered by enrichment ratio: at most 0.25 for the first, at most 0.25 for the second.

YNSV and PEMG cannot be ordered by enrichment ratio: at most 0.25 for the first, at most 0.25 for the second.

DYLP and VHFV cannot be ordered by enrichment ratio: at most 0.25 for the first, at most 0.25 for the second.

Compared with FGAP, STQI is higher in enrichment ratio: at most 0.25 for the first, 3.79 for the second.

MFDS and MNFW cannot be ordered by enrichment ratio: at most 0.25 for the first, at most 0.25 for the second.

RLVT and LWGP cannot be ordered by enrichment ratio: at most 0.25 for the first, at most 0.25 for the second.

RASQ and EMVF cannot be ordered by enrichment ratio: at most 0.25 for the first, at most 0.25 for the second.

WFAH and NHWV cannot be ordered by enrichment ratio: at most 0.25 for the first, at most 0.25 for the second.

QTVN and IMHK cannot be ordered by enrichment ratio: at most 0.25 for the first, at most 0.25 for the second.

QECM and DETG cannot be ordered by enrichment ratio: at most 0.25 for the first, at most 0.25 for the second.

KMKD and PWHL cannot be ordered by enrichment ratio: at most 0.25 for the first, at most 0.25 for the second.

MIIF and DAFR cannot be ordered by enrichment ratio: at most 0.25 for the first, at most 0.25 for the second.

In the case of SDCT, the enrichment ratio is reported as 4.8.
